Measured values as given in US20250262316A1, “ANTIBODY-DRUG CONJUGATE AND APPLICATION THEREOF” (Bio-Thera Solutions, Ltd., priority 2021, published 2025).

Target: T1, hB7-H3-His (Homo sapiens, UniProt Q5ZPR3)
T1 construct: 10xHis (C); made in house; host or cells: HEK293F (transient transfection)
T1 sequence (Q5ZPR3 with tags, fused parts or gaps): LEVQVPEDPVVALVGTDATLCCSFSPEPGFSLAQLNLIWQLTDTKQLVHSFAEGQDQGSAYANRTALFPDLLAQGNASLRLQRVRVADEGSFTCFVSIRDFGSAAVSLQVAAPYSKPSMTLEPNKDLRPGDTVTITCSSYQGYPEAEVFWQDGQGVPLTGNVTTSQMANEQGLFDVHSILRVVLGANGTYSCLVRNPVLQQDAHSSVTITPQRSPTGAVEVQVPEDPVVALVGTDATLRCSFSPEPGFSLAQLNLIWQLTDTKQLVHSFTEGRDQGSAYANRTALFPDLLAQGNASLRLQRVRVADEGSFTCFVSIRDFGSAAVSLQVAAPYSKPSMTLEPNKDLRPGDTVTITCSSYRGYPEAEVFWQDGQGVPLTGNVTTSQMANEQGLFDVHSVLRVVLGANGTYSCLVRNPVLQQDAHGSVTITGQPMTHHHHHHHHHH
Test: BiaCore T200 affinity of chimeric antibodies for hB7-H3-His
Settings: binding to hB7-H3-His, 1:1 kinetic model
Excerpt: Preparation of antigen hB7-H3-His: the gene sequence encoding the antigen hB7-H3-His (the amino acid sequence of the antigen hB7-H3-His is set forth in SEQ ID NO: 4 and is constructed by adding 10×HIS tag ([…], set forth in SEQ ID NO: 5) to the C-terminus of the human B7-H3 extracellular domain (set forth in SEQ ID NO: 2)) was cloned into an expression vector, which was then transiently transfected into HEK293F cells, and the antigen hB7-H3-His was obtained after purification with a nickel column,
Experiment results were analyzed using data analysis software Evaluation Software 3.1. The sensing signals acquired from the experiment flow channels for the samples were subjected to double subtraction (minus values of reference flow channels and blank control), and the fitting was performed using a “1:1” kinetic model to obtain the kinetic parameters (ka: association rate; kd: dissociation rate; kD: equilibrium dissociation constant) for the binding of each sample to hB7-H3-His.

B1: M30-H1-L4: Control antibody; heavy chain SEQ ID NO: 30, light chain SEQ ID NO: 31 (antibody)
heavy: QVQLVQSGAEVKKPGSSVKVSCKASGYTFTNYVMHWVRQAPGQGLEWMGYINPYNDDVKYNEKFKGRVTITADESTSTAYMELSSLRSEDTAVYYCARWGYYGSPLYYFDYWGQGTLVTVSSASTKGPSVFPLAPSSKSTSGGTAALGCLVKDYFPEPVTVSWNSGALTSGVHTFPAVLQSSGLYSLSSVVTVPSSSLGTQTYICNVNHKPSNTKVDKRV[letters of human IgG1 Fc omitted]
light: EIVLTQSPATLSLSPGERATLSCRASSRLIYMHWYQQKPGQAPRPLIYATSNLASGIPARFSGSGSGTDFTLTISSLEPEDFAVYYCQQWNSNPPTFGQGTKVEIKRTVAAPSVFIFPPSDEQLKSGTASVVCLLNNFYPREAKVQWKVDNALQSGNSQESVTEQDSKDSTYSLSSTLTLSKADYEKHKVYACEVTHQGLSSPVTKSFNRGEC
  ka (association rate): 243700 M⁻¹ s⁻¹
  kd (dissociation rate): 0.0002403 s⁻¹
